From the supplement of paper PMC9135407
“And” between values parts separate entries of the source, which are not always exact repeats. Equal values may be shown once. Where a name gives a salt, the structure may show the parent alone. Out of some 5,800 compounds screened, about 620 (11%) showed activity.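 The calls were made as follows: active = score above a cut-off or among the top three wells of a plate; in these data no inactive exceeds 0.85.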 The list shows a part of the results, in another mix than the full data.

Tested on: primary human hepatic stellate cells (donor 1)
Assay: scaled lipid accumulation score (0 = DMSO-like, 1 = nortriptyline-like); higher = stronger HSC inactivation (lipid re-accumulation), active = hit call of the paper
Settings: 48 h
[1] = library stock concentration: 3.33 mM
[2] = library stock concentration: 10 mM
[3] = library stock concentration: 80 uM
[4] = library stock concentration: 400 uM
[5] = library stock concentration: 2 mM
[6] = library stock concentration: 1 mM

Compound: Nc1nc(=O)[nH]cc1F [Flucytosine]
- scaled lipid accumulation score: inactive: ≤ 0
- scaled lipid accumulation score [1]: inactive: ≤ 0
- scaled lipid accumulation score [2]: inactive: ≤ 0
- scaled lipid accumulation score (library stock concentration: 15.5 mM): inactive: ≤ 0

Compound: Oc1cc(O)cc(/C=C/c2ccc(O)c(O)c2)c1 [Piceatannol]
- scaled lipid accumulation score [1]: inactive: 0.001
- scaled lipid accumulation score [2]: inactive: ≤ 0 and inactive: 0.452 and inactive: 0.038

Compound: Cc1cccc(C)c1NC(=O)CN1CCN(CCCC(c2ccc(F)cc2)c2ccc(F)cc2)CC1 [Lidoflazine]
- scaled lipid accumulation score: inactive: ≤ 0

Compound: CN(C)CCCN1c2ccccc2CCc2ccc(Cl)cc21.Cl [Clomipramine hydrochloride]
- scaled lipid accumulation score: active: 0.968

Compound: COc1cc(C)c(Cc2cnc(N)nc2N)cc1OC
- scaled lipid accumulation score [2]: inactive: ≤ 0

Compound: Cc1c(C)c2c(c(C)c1O)CCC(C)(CCCC(C)CCCC(C)CCCC(C)C)O2 (stereo not drawn) [Alpha-tochopherol]
- scaled lipid accumulation score [2]: inactive: ≤ 0

Compound: CN(C)C(=O)c1cc2cnc(Nc3ccc(N4CCNCC4)cn3)nc2n1C1CCCC1
- scaled lipid accumulation score [1]: inactive: 0.18
- scaled lipid accumulation score [2]: inactive: 0.69

Compound: CN(C)C(=O)c1cc2cnc(Nc3ccc(N4CCNCC4)cn3)nc2n1C1CCCC1 [Ribociclib]
- scaled lipid accumulation score [3]: inactive: ≤ 0
- scaled lipid accumulation score [4]: inactive: 0.035
- scaled lipid accumulation score [5]: inactive: ≤ 0
- scaled lipid accumulation score [2]: inactive: 0.295

Compound: NC[C@H]1O[C@H](O[C@H]2[C@H](O)[C@@H](O[C@H]3O[C@H](CO)[C@@H](O)[C@H](N)[C@H]3O)[C@H](N)C[C@@H]2N)[C@H](N)[C@@H](O)[C@@H]1O [Bekanamycin sulfate]
- scaled lipid accumulation score [2]: inactive: 0.004

Compound: C=C1[C@H](CO)[C@@H](O)C[C@@H]1n1cnc2c(=O)[nH]c(N)nc21 [Entecavir Hydrate]
- scaled lipid accumulation score [1]: inactive: ≤ 0
- scaled lipid accumulation score [2]: inactive: ≤ 0

Compound: C[C@@H]1O[C@@H](OC[C@H]2O[C@@H](Oc3c(-c4ccc(O)c(O)c4)oc4cc(O)cc(O)c4c3=O)[C@H](O)[C@@H](O)[C@@H]2O)[C@H](O)[C@H](O)[C@H]1O [Rutin]
- scaled lipid accumulation score [1]: inactive: ≤ 0
- scaled lipid accumulation score [2]: inactive: 0.08

Compound: C[C@@H]1O[C@@H](OC[C@H]2O[C@@H](Oc3c(-c4ccc(O)c(O)c4)oc4cc(O)cc(O)c4c3=O)[C@H](O)[C@@H](O)[C@@H]2O)[C@H](O)[C@H](O)[C@H]1O
- scaled lipid accumulation score [2]: inactive: ≤ 0

Compound: C=C1C(=CC=C2CCC[C@]3(C)[C@@H]([C@H](C)CCCC(C)C)CC[C@@H]23)C[C@@H](O)C[C@@H]1O [Alfacalcidol]
- scaled lipid accumulation score [2]: active: 1.03

Compound: COc1ccnc2[nH]cc(C(=O)C(=O)N3CCN(C(=O)c4ccccc4)C[C@H]3C)c12
- scaled lipid accumulation score [1]: inactive: ≤ 0
- scaled lipid accumulation score [2]: inactive: 0.019

Compound: CCCC(=O)Nc1ccc(OCC(O)CNC(C)C)c(C(C)=O)c1 (stereo unspecified) [Acebutolol HCl]
- scaled lipid accumulation score [1]: inactive: ≤ 0
- scaled lipid accumulation score [2]: inactive: ≤ -0.001

Compound: CCCC(=O)Nc1ccc(OCC(O)CNC(C)C)c(C(C)=O)c1 (stereo unspecified) [Acebutolol hydrochloride]
- scaled lipid accumulation score: inactive: ≤ 0
- scaled lipid accumulation score (library stock concentration: 5.4 mM): inactive: ≤ 0
- scaled lipid accumulation score [2]: inactive: ≤ 0

Compound: CC(=O)Nc1ccc(OCC(O)CNC(C)C)cc1 (stereo unspecified) [Practolol]
- scaled lipid accumulation score: inactive: ≤ 0
- scaled lipid accumulation score (library stock concentration: 7.5 mM): inactive: ≤ -0.006

Compound: N[C@@H]1CCN(O)C1=O
- scaled lipid accumulation score [2]: inactive: ≤ 0

Compound: CO/N=C(\C(=O)N[C@@H]1C(=O)N2C(C(=O)O)=C(CSC(=O)c3ccco3)CS[C@H]12)c1csc(N)n1 [Ceftiofur HCl]
- scaled lipid accumulation score [1]: inactive: 0.015
- scaled lipid accumulation score [2]: inactive: ≤ 0

Compound: CO/N=C(\C(=O)N[C@@H]1C(=O)N2C(C(=O)O)=C(CSC(=O)c3ccco3)CS[C@H]12)c1csc(N)n1
- scaled lipid accumulation score [2]: inactive: ≤ 0

Compound: C#CCCCCCCCCCCCCCCCC(=O)O [17-Octadecynoic acid]
- scaled lipid accumulation score [6]: inactive: 0.029

Compound: C#CCCCCCCCCCCCCCCCC(=O)O [17-Octadecynoic Acid]
- scaled lipid accumulation score [6]: inactive: 0.016

Compound: O=C(O)CCC/C=C\C[C@@H]1C(=O)C[C@@H](O)[C@@H]1/C=C/[C@@H](O)CC1CCCCC1 [8-iso-16-cyclohexyl-tetranor Prostaglandin E2]
- scaled lipid accumulation score [6]: inactive: ≤ 0

Compound: COc1cc2c(cc1O)[C@@H](Cc1ccc(O)cc1)[N+](C)(C)CC2 [Magnocurarine iodide]
- scaled lipid accumulation score [2]: inactive: 0.116

Compound: C[C@H](CCC(=O)O)[C@H]1CC[C@H]2[C@@H]3C[C@H](O)[C@@H]4C[C@H](O)CC[C@]4(C)[C@H]3CC[C@]12C [Hyodeoxycholic acid (HDCA)]
- scaled lipid accumulation score [1]: inactive: ≤ 0
- scaled lipid accumulation score [2]: inactive: ≤ 0

Compound: N=C(N)c1ccc(N=NNc2ccc(C(=N)N)cc2)cc1 [Diminazene Aceturate]
- scaled lipid accumulation score [1]: inactive: ≤ 0
- scaled lipid accumulation score [2]: inactive: ≤ -0.001

Compound: N=C(N)c1ccc(N=NNc2ccc(C(=N)N)cc2)cc1
- scaled lipid accumulation score [2]: inactive: 0.113

Compound: COc1cc2ncnc(Sc3nnc(C)s3)c2cc1OC
- scaled lipid accumulation score [2]: active: 0.919

Compound: O=C(Nc1ccccc1)OCC(CN1CCCCC1)OC(=O)Nc1ccccc1 (stereo unspecified) [Diperodon hydrochloride]
- scaled lipid accumulation score: inactive: 0.714

Compound: CC1(C)C(=O)N(CCN2CCC(C(=O)c3ccc(F)cc3)CC2)c2ccccc21 [LY-310,762 hydrochloride]
- scaled lipid accumulation score [2]: inactive: 0.041

Compound: NC(=O)Nc1sc(-c2ccc(F)cc2)cc1C(N)=O
- scaled lipid accumulation score [3]: inactive: ≤ -0.009
- scaled lipid accumulation score [4]: inactive: ≤ -0.009
- scaled lipid accumulation score [5]: inactive: ≤ -0.009
- scaled lipid accumulation score [1]: inactive: ≤ 0
- scaled lipid accumulation score [2]: inactive: ≤ 0 and inactive: 0.009

Compound: N[C@@H](CC(=O)N1CCn2c(nnc2C(F)(F)F)C1)Cc1cc(F)c(F)cc1F [Sitagliptin phosphate monohydrate]
- scaled lipid accumulation score [1]: inactive: ≤ 0
- scaled lipid accumulation score [2]: inactive: ≤ 0

Compound: N[C@@H](CC(=O)N1CCn2c(nnc2C(F)(F)F)C1)Cc1cc(F)c(F)cc1F [Sitagliptin]
- scaled lipid accumulation score (library stock concentration: 4.9 mM): inactive: ≤ 0

Compound: C[C@@H]1O[C@@H](O[C@H]2[C@H](Oc3cc(O)c4c(c3)O[C@H](c3ccc(O)cc3)CC4=O)O[C@H](CO)[C@@H](O)[C@@H]2O)[C@H](O)[C@H](O)[C@H]1O [Naringin hydrate]
- scaled lipid accumulation score: inactive: ≤ 0

Compound: C[C@@H]1O[C@@H](O[C@H]2[C@H](Oc3cc(O)c4c(c3)O[C@H](c3ccc(O)cc3)CC4=O)O[C@H](CO)[C@@H](O)[C@@H]2O)[C@H](O)[C@H](O)[C@H]1O [Naringin]
- scaled lipid accumulation score [1]: inactive: 0.01
- scaled lipid accumulation score [2]: inactive: ≤ 0

Compound: Cn1cc(C2=C(c3cn(CCCSC(=N)N)c4ccccc34)C(=O)NC2=O)c2ccccc21 [Ro 31-8220 Mesylate]
- scaled lipid accumulation score [1]: inactive: ≤ -0.009
- scaled lipid accumulation score [2]: inactive: 0.514

Compound: Cn1cc(C2=C(c3cn(CCCSC(=N)N)c4ccccc34)C(=O)NC2=O)c2ccccc21
- scaled lipid accumulation score [3]: inactive: 0.068
- scaled lipid accumulation score [4]: inactive: 0.267
- scaled lipid accumulation score [5]: inactive: ≤ 0
- scaled lipid accumulation score [1]: inactive: ≤ 0
- scaled lipid accumulation score [2]: inactive: 0.848
- scaled lipid accumulation score (library stock concentration: 10.9 mM): inactive: 0.832

Compound: Cn1cc(C2=C(c3cn(CCCSC(=N)N)c4ccccc34)C(=O)NC2=O)c2ccccc21 [Ro 31-8220 mesylate]
- scaled lipid accumulation score [2]: inactive: ≤ -0.001

Compound: Cn1cc(C2=C(c3cn(CCCSC(=N)N)c4ccccc34)C(=O)NC2=O)c2ccccc21 [Bisindolylmaleimide IX (mesylate)]
- scaled lipid accumulation score [6]: inactive: ≤ 0

Compound: Nc1ccccc1NC(=O)CCCCCCC(=O)Nc1ccccc1
- scaled lipid accumulation score [6]: inactive: 0.001

Compound: C=COCC(F)(F)F
- scaled lipid accumulation score [2]: inactive: ≤ 0

Compound: COc1cc2ncn(-c3cc(OCc4ccccc4S(C)(=O)=O)c(C#N)s3)c2cc1OC [IKK-3 Inhibitor IX]
- scaled lipid accumulation score [1]: inactive: ≤ 0

Compound: COc1nc(C)cnc1NS(=O)(=O)c1cccnc1-c1ccc(-c2nnco2)cc1 [Zibotentan (ZD4054)]
- scaled lipid accumulation score [1]: inactive: ≤ 0
- scaled lipid accumulation score [2]: inactive: ≤ 0

Compound: C/C(O)=C(\C#N)C(=O)Nc1ccc(C(F)(F)F)cc1 [Teriflunomide]
- scaled lipid accumulation score [1]: inactive: ≤ 0
- scaled lipid accumulation score [2]: inactive: ≤ -0.001

Compound: Cc1oc(=O)oc1CN1CCN(c2cc3c(cc2F)c(=O)c(C(=O)O)c2n3C(C)S2)CC1 (stereo unspecified)
- scaled lipid accumulation score [2]: inactive: ≤ 0

Compound: Cn1cc(/C=C/C(=O)c2cccc(F)c2)cc1/C=C/C(=O)NO
- scaled lipid accumulation score [3]: inactive: ≤ 0
- scaled lipid accumulation score [4]: inactive: ≤ 0
- scaled lipid accumulation score [5]: inactive: ≤ 0
- scaled lipid accumulation score [1]: inactive: 0.058
- scaled lipid accumulation score [2]: inactive: 0.429 and inactive: 0.113

Compound: N=C(N=C(N)N)N1CCOCC1 [Moroxidine hydrochloride]
- scaled lipid accumulation score: inactive: ≤ 0

Compound: Nc1nccc2c1ncn2C1C=C(CO)C(O)C1O (stereo unspecified) [3-Deazaneplanocin A (DZNeP)]
- scaled lipid accumulation score [1]: inactive: ≤ -0.009
- scaled lipid accumulation score [2]: inactive: ≤ 0

Compound: CC(=O)OCC(=O)[C@@]12OC3(CCCC3)O[C@@H]1C[C@H]1[C@@H]3CCC4=CC(=O)C=C[C@]4(C)[C@@]3(F)[C@@H](O)C[C@@]12C
- scaled lipid accumulation score [2]: inactive: ≤ 0

Compound: CC(=O)OCC(=O)[C@@]12OC3(CCCC3)O[C@@H]1C[C@H]1[C@@H]3CCC4=CC(=O)C=C[C@]4(C)[C@@]3(F)[C@@H](O)C[C@@]12C [Amcinonide]
- scaled lipid accumulation score (library stock concentration: 4 mM): inactive: ≤ 0
- scaled lipid accumulation score [2]: inactive: ≤ -0.002

Compound: Cc1nc(N(C)C(=O)Cc2ccc(-c3ccccn3)cc2)sc1S(N)(=O)=O [Pritelivir (BAY 57-1293)]
- scaled lipid accumulation score [1]: inactive: ≤ -0.009
- scaled lipid accumulation score [2]: inactive: ≤ 0

Compound: C=C1CCC(O)C/C1=C\C=C1\CCCC2(C)C1CCC2C(C)CCC(O)C(C)(C)O (stereo unspecified) [24,25-Dihydroxyvitamin D3]
- scaled lipid accumulation score [6]: inactive: 0.016

Compound: CC(Cc1ccc(O)c(O)c1)C(C)Cc1ccc(O)c(O)c1 (stereo unspecified) [Nordihydroguaiaretic Acid]
- scaled lipid accumulation score [6]: inactive: 0.042

Compound: C[C@@H](C(=O)O)c1ccc(-c2ccccc2)c(F)c1 [(R)-Flurbiprofen]
- scaled lipid accumulation score [6]: inactive: 0.021

Compound: C(=C(\CCNC1)/C1)(/c2c(cccn2)CC3)\c(ccc(Cl)c4)c34 [Desloratadine]
- scaled lipid accumulation score (library stock concentration: 6.4 mM): active: 1.03

Compound: CCC(CC)(NC(=O)C(C)C)C(=O)N[C@@H](CCCN=C(N)N)C(=O)NC1(C(=O)NC(c2ccc(F)cc2)c2ccc(F)cc2)CCCC1
- scaled lipid accumulation score [1]: inactive: ≤ -0.009
- scaled lipid accumulation score [2]: inactive: ≤ 0
